# Results from PubChem BioAssay AID1963576 (National Center for Advancing Translational Sciences (NCATS), 2024).
# Hit rate of the full screen: of about 46,000 compounds, about 60 (0.1%) were called active. The inconclusive results got no clear call from the source; some entries with a clear call stand among them for comparison. Calls follow the shape of the dose curve; as a rule, active = well fitted inhibition curve with a large enough effect; inconclusive = small, poorly fitted or top-dose-only effect; inactive = no such curve, though single readings can be large or run the other way. Potencies of inconclusive entries are left out as doubtful fits.
# Experiment: Primary qHTS assay for Inhibitors of ovarian cancer metastasis using an organotypic tumor microenvironment (TME) model. Also: nearly all actives have a fitted effect of over 65% in size.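 As to Potency: count of GFP cancer cells still attached after washing and fixation.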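 As to activity change, negative = inhibition: plate controls were DMSO wells for no effect and tomatine positive control wells for full effect.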
# Conditions: SKOV3ip1-GFP adhesion/invasion on 3D omental model, fluorescence; activity change, negative = inhibition: at 45.8 µM (top of the series); series mostly up to 45.8 µM
# In short: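 Adhesion/invasion was scored as fixed GFP-labeled SKOV3ip1 cell counts (488/509 nm), normalized to DMSO and tomatine controls. Cancer cells in serum-free medium, with four compound doses (0.36-46 umol/L), sat 2 hr at RT then 16 hr at 37 C on a 48 hr fibroblast/mesothelial/ECM culture.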
# Potency is read from the fitted curve at half-maximal effect; tags tell the direction and shape of the fitted curve.
Compound,Potency,"activity change, negative = inhibition"
COc1ccc(CNC(=O)c2ccc3c(c2)nc2n3CCCCC2)c(OC)c1,"inconclusive [inhibitor, single point]",
COc1cccc(-c2cc(C(=O)Nc3ccc(C)cc3)[nH]n2)c1,"inconclusive [inhibitor, single point]",
CCOc1ccc(C(=O)N2CCCCC2CCN2CCOCC2)cc1 (stereo unspecified),"inconclusive [inhibitor, full curve, poor fit]",
CC1=C(c2ccc(C)cc2)S(=O)(=O)N(Cc2ccc(C(=O)Nc3ccc(F)cc3C)cc2)C1=O,"inconclusive [inhibitor, partial curve]",
O=C(Nc1nc2ccc(F)cc2s1)c1nc(S(=O)(=O)Cc2ccccc2)ncc1Cl,"inconclusive [inhibitor, single point]",
CCOC(=O)c1c(NC(C)=O)c2c3c(sc2n1Cc1nc(-c2ccccc2C)oc1C)CCCC3,,inactive: 10.7%
Cc1cc(C)cc(OCCCn2c(CCNC(=O)C3CCCCC3)nc3ccccc32)c1,"inconclusive [inhibitor, single point]",
CC1CCN(S(=O)(=O)c2ccc(C(=O)Nc3sc4c(c3C(N)=O)CC(C)(C)NC4(C)C)cc2)CC1,"inconclusive [inhibitor, single point]",
COc1ccc(-c2cc(C(=O)NCc3ccc(F)cc3)c3c(-c4ccc(F)cc4)[nH]nc3n2)cc1OC,,inactive: -6.59%
CC(=O)c1cccc(NC(=O)C2CCCN(c3nnc(-n4cccc4)s3)C2)c1 (stereo unspecified),"inconclusive [inhibitor, single point]",
CCCc1nc(C)c2c(=O)[nH]c(-c3cc(S(=O)(=O)N4CCN(CC)CC4)ccc3OCC)nn12,"inconclusive [inhibitor, single point]",
COc1cc(-c2nnc(SCC(=O)Nc3ccc(F)c(Cl)c3)o2)cc(OC)c1OC,"inconclusive [inhibitor, partial curve]",
CC(NC(=O)c1cc(Sc2ccc(F)cc2F)nc2ccccc12)c1ccccc1 (stereo unspecified),"inconclusive [inhibitor, single point]",
CCc1ccc(NC(=O)CSc2nc3nccnc3c(=O)n2CCc2c[nH]c3ccccc23)cc1,,inactive: 9.14%
CCc1ccc(NC(=O)C2CCN(C(=O)N3CC(CC)Oc4ccccc43)CC2)cc1 (stereo unspecified),"inconclusive [inhibitor, single point]",
Cn1ccc2cc(S(=O)(=O)N3CCCN(C(=O)Nc4ccccc4Br)CC3)ccc21,"inconclusive [inhibitor, single point]",
